Measurements: the supplement of paper PMC9446081
In all, about 39,000 compounds went through this assay and about 220 (0.56%) showed activity. The list shows a part of the results.

What follows are compounds tested on Escherichia coli K-12 BW25113 (assay: relative growth (OD600 normalised to plate interquartile mean) (fraction); higher = less growth inhibition, active = 0.2 or less). Conditions: 50 µM; LB; incubation time: overnight (16-24 h).
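Further: static incubation at 37 °C against the wild-type strain, values averaged over two biological replicates.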

Compound	relative growth
C[C@@H]1CN([C@@H](C)CO)C(=O)Cc2cc(NC(=O)CCCCCC(=O)Nc3ccccc3N)ccc2O[C@H]1CN(C)Cc1ccccc1	inactive: 1.03
O=C(C[C@H]1CC[C@@H]2[C@H](COC[C@H](O)CN2S(=O)(=O)c2ccc(F)cc2)O1)NCCN1CCCCC1	inactive: 1
O=C(C[C@@H]1CC[C@@H]2[C@H](COC[C@H](O)CN2C(=O)c2ccccc2)O1)N1CCOCC1	inactive: 0.973
Cc1ccc(S(=O)(=O)N(C)C[C@H]2OCCCC[C@@H](C)Oc3ccc(NC(=O)c4ccccc4)cc3C(=O)N([C@@H](C)CO)C[C@H]2C)cc1	inactive: 1.02
C[C@H](CO)N1C[C@H](C)[C@H](CN(C)Cc2ccc(-c3ccccc3)cc2)Oc2ccc(NC(=O)CCCCCC(=O)Nc3ccccc3N)cc2C1=O	inactive: 0.97
O=c1nc(NCc2cccnc2)cn[nH]1	inactive: 1.04
C[C@@H]1CCCCO[C@H](CN(C)C(=O)Cc2ccccc2)[C@H](C)CN([C@@H](C)CO)C(=O)c2cc(NC(=O)c3ccccc3)ccc2O1	inactive: 1
C[C@H](CO)N1C[C@H](C)[C@@H](CN(C)C(=O)Nc2cccc3ccccc23)Oc2ccc(NS(=O)(=O)c3cccs3)cc2C1=O	inactive: 0.993
O=C(O)Cc1nnc(-c2ccncc2)[nH]1	inactive: 1
C(=CN1CCN(C(c2ccccc2)c2ccccc2)CC1)Cc1ccccc1	inactive: 1.03
O=C(CCCCCCC(=O)Nc1ccccc1O)N/N=C/c1cc(Br)c(O)c(Br)c1	inactive: 0.932
CO/N=[N+](\[O-])N1CCCC1	inactive: 0.956
C[C@H]1CN([C@@H](C)CO)C(=O)c2cccc(NC(=O)C3CCOCC3)c2O[C@H]1CN(C)S(=O)(=O)c1ccc(Cl)cc1	inactive: 1.01
CC1=NCCN1C(=O)[C@@H](N)CC(C)C	inactive: 1
Cc1cc(Cl)ccc1OCCN1CCN(C(=O)[C@H]2CC[C@@H](N)C2)CC1	inactive: 0.931
C[C@H]1CN([C@@H](C)CO)C(=O)c2cc(NC(=O)CCC(F)(F)F)ccc2O[C@H]1CN(C)Cc1ccc(C(F)(F)F)cc1	inactive: 1.02
COc1ccc(S(=O)(=O)N2C[C@@H](O)COC[C@@H]3O[C@H](CC(=O)NCc4ccc(Cl)c(Cl)c4)CC[C@H]32)cc1	inactive: 1.01
COCc1cn([C@H]2C[C@H](O)[C@@H](CO)O2)c(=O)[nH]c1=O	inactive: 0.986
O=C1CN(S(=O)(=O)Cc2ccccc2)C[C@@H]2[C@H](c3ccc(C#Cc4cccc(F)c4)cc3)[C@H](CO)N12	inactive: 1.03
O=C(C[C@H]1C[C@@H]2c3cc(NC(=O)Nc4ccccc4F)ccc3O[C@@H]2[C@H](CO)O1)NCc1ccc(Oc2ccccc2)cc1	inactive: 0.951

Compound	relative growth
C[C@@H]1CN([C@@H](C)CO)C(=O)Cc2cc(NC(=O)Cn3cnnn3)ccc2O[C@@H]1CN(C)S(=O)(=O)c1cn(C)cn1	inactive: 1
Cc1noc(C)c1S(=O)(=O)Nc1ccc2c(c1)C(=O)N([C@H](C)CO)C[C@H](C)[C@H](CN(C)C(=O)NC(C)C)O2	inactive: 0.986
C[C@H](CO)N1C[C@H](C)[C@H](CN(C)C(=O)Nc2ccc(F)cc2)OCCCC[C@H](C)Oc2ccc(NS(=O)(=O)c3ccccc3)cc2C1=O	inactive: 1.05
C[C@H]1CN([C@@H](C)CO)C(=O)c2cc(NS(=O)(=O)c3ccc(Cl)cc3)ccc2O[C@H]1CN(C)Cc1ccc(Oc2ccccc2)cc1	inactive: 1.01
Cc1c2oc3c(C)ccc(C(=O)OC(C)C4NC(=O)C(C(C)C)N(C)C(=O)CN(C)C(=O)C5CCCN5C(=O)C(C(C)C)NC4=O)c3nc-2c(C(=O)OC(C)C2NC(=O)C(C(C)C)N(C)C(=O)CN(C)C(=O)C3CCCN3C(=O)C(C(C)C)NC2=O)c(N)c1=O (stereo not given)	inactive: 0.758
C[C@H](CO)N1C[C@H](C)[C@@H](CN(C)Cc2ccc(-c3ccccc3)cc2)Oc2ccc(NC(=O)CCCCCC(=O)Nc3ccccc3N)cc2CC1=O	inactive: 0.96
C[C@@H]1CN([C@H](C)CO)C(=O)c2cc(NC(=O)C3CCCCC3)ccc2O[C@@H](C)CCCCO[C@H]1CN(C)C(=O)Nc1ccc(F)cc1	inactive: 0.992
O=C(C[C@H]1CC[C@H]2[C@@H](COC[C@H](O)CN2Cc2ccccc2F)O1)N[C@@H]1CCN(Cc2ccccc2)C1	inactive: 0.961
CC(C)NC(=O)Nc1ccc2c(c1)C(=O)N([C@H](C)CO)C[C@H](C)[C@@H](CN(C)C(=O)Nc1ccc(C(F)(F)F)cc1)OCCCC[C@H](C)O2	inactive: 1.04
Cc1ccc2c(N)[nH]nc2n1	inactive: 0.97
COc1ccccc1S(=O)(=O)N[C@@H]1C=C[C@@H](CC(=O)N2CCN(C)CC2)O[C@H]1CO	inactive: 0.994
C[C@@H]1CCCCO[C@@H](CN(C)S(=O)(=O)c2cn(C)cn2)[C@@H](C)CN([C@@H](C)CO)C(=O)c2cc(NS(=O)(=O)c3cccs3)ccc2O1	inactive: 0.973
CCCCC/C=C\C/C=C\CCCCCCCC(N)=O	inactive: 0.89
COC(=O)c1c(CC[C@@H](CO)NC(=O)N2CCC[C@H]2Cn2cc(Cc3ccccc3)nn2)oc(C(C)=O)c1C(=O)OC	inactive: 1.01
C[C@@H]1CN([C@@H](C)CO)C(=O)Cc2cc(NC(=O)Nc3ccc(F)cc3)ccc2O[C@@H]1CN(C)C(=O)Nc1ccc(C(F)(F)F)cc1	inactive: 1.01
O=C(CCCN1CC=C(n2c(=O)[nH]c3ccccc32)CC1)c1ccc(F)cc1	inactive: 1.08
CCS(=O)(=O)N1C[C@]2(CN(C2)C(=O)Nc2c(noc2C)C)c2c([nH]c3cc(ccc23)OC)[C@H]1CO	inactive: 1.02
CN(C)CCCCNC(=O)[C@H]1C[C@H]2C(=O)N[C@@H](CCCC[N+](C)(C)C)C(=O)N2[C@H]1c1ccc(O)cc1	inactive: 0.984
CO[C@@H]1CN(C)C(=O)c2ccc(NS(=O)(=O)CC(F)(F)F)cc2OC[C@H](C)N(Cc2nccs2)C[C@H]1C	inactive: 0.987
C[C@H]1CN([C@@H](C)CO)C(=O)c2cc(NS(=O)(=O)c3ccc(F)cc3)ccc2O[C@@H]1CN(C)S(=O)(=O)c1cccs1	inactive: 0.983
